{
  "source": "the supplement of paper PMC11417369",
  "note": "± gives the standard deviation of the averaged measurements. This is one part of the list.",
  "data": [
    {"test_system": "PfAP2-G AP2 domain (GST-tagged)", "experiment": "gcPBM binding intensity (ln(normalized median fluorescence intensity)); higher = stronger DNA binding", "how_it_was_run": "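DNA-binding domains from P. falciparum, fused to GST and produced in E. coli, were put on an Agilent 4 × 180k double-stranded probe array for 1 h in 1× PBS holding 1% milk, 0.2 mg/ml BSA, 0.5% salmon testes DNA and 0.03% Triton X-100. Probes were primer-extended, 36 bp long and drawn from intergenic genomic regions, with negative controls included. After Alexa488 anti-GST antibody detection and a 488 nm scan, binding intensity was set as the highest Masliner-normalised natural-log median intensity across replicate spots of either probe orientation.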", "values": [
      {"sequence": "TATGGTGTAATTTAGTGTATTATATTATTTTGGTTG [GTGCAC_negctrl_site445]", "gcPBM binding intensity (ln)": "10.05 ± 0.014"},
      {"sequence": "GTCTATTCAAAAAAGTGTACGGACATATAAACATAC [XGTACX_site6516]", "gcPBM binding intensity (ln)": "11.6 ± 0.83"},
      {"sequence": "TTAGCTATGATATATACACACCAACGAACGAAGAAA [CACACA_site6657]", "gcPBM binding intensity (ln)": "10.1 ± 0.19"},
      {"sequence": "AAAGATGTTATATATATGTATATATATATGTAATAT [TGCATGCA_negctrl_site386]", "gcPBM binding intensity (ln)": "9.59 ± 0.16"},
      {"sequence": "CATATAATTATATATCGTACATATTAATATAATTAC [XGTACX_site401]", "gcPBM binding intensity (ln)": "10.8 ± 0.54"},
      {"sequence": "AGTATACAGATATATACACACATATATTTATTTATA [CACACA_site6279]", "gcPBM binding intensity (ln)": "9.81 ± 0.071"},
      {"sequence": "ATTTATTTATTTATTTGTACATATAAATATATCAAA [XGTACX_site7383]", "gcPBM binding intensity (ln)": "10.8 ± 0.49"},
      {"sequence": "TATATTTATTTATACACATGCATATTTTAAGGGCTC [TGCATGCA_site885]", "gcPBM binding intensity (ln)": "9.965 ± 0.021"},
      {"sequence": "ATATATATATATATATGTACTTATAAGGTATATTTA [XGTACX_site3327]", "gcPBM binding intensity (ln)": "11.1 ± 0.68"},
      {"sequence": "AGATATAGGAAAATAATATATATATATTTTTTTTTT [CACACA_negctrl_site461]", "gcPBM binding intensity (ln)": "9.54 ± 0.15"},
      {"sequence": "AAAAAGAAAAAACTTACACACATATATACAGACATG [CACACA_site550]", "gcPBM binding intensity (ln)": "10.19 ± 0.057"},
      {"sequence": "TTATAATCCATAATTGCACACAATATATTCATATTT [CACACA_site3916]", "gcPBM binding intensity (ln)": "9.93 ± 0.13"},
      {"sequence": "AAAAAAAAATAAATAAATATATATAATATTTATGTT [GTGCAC_negctrl_site520]", "gcPBM binding intensity (ln)": "9.39 ± 0.15"},
      {"sequence": "TGGTTAATATGTGAAAGTACATATTATATTAAAATG [XGTACX_site2636]", "gcPBM binding intensity (ln)": "11.1 ± 0.58"},
      {"sequence": "TACAGATAATATATTGCACACGTCAGAATAATATAG [CACACA_site5036]", "gcPBM binding intensity (ln)": "10.06 ± 0.049"},
      {"sequence": "TATAACTTTTTTATTACACACCTATGCAATATTATA [CACACA_site6570]", "gcPBM binding intensity (ln)": "9.96 ± 0.071"},
      {"sequence": "ATAAAATAAGATCTTTTTTTTTTTTTTTTCTTTTCT [XGTACX_negctrl_site73]", "gcPBM binding intensity (ln)": "9.485 ± 0.078"},
      {"sequence": "AACAAATAAATAAATAAAAAGCAAATATGTCTATAT [GTGCAC_negctrl_site414]", "gcPBM binding intensity (ln)": "9.71 ± 0.23"},
      {"sequence": "ACTTATTATTAATATTGTACTCTTGAAAATTGTGGA [XGTACX_site6315]", "gcPBM binding intensity (ln)": "11.3 ± 0.74"},
      {"sequence": "AATACACAAATATATTGTACATATATATATATATAT [XGTACX_site2440]", "gcPBM binding intensity (ln)": "11 ± 0.69"},
      {"sequence": "ATATATATTTTTTAAACACACACATAAATATTTGTG [CACACA_site8936]", "gcPBM binding intensity (ln)": "10.35 ± 0.092"},
      {"sequence": "TATATGTATTTATATACACACATATTCTTTTGACAC [CACACA_site1206]", "gcPBM binding intensity (ln)": "10.2 ± 0.26"},
      {"sequence": "TATATATATATATGTGCATGTTCCCCATGCTTCCAT [TGCATGCA_site366]", "gcPBM binding intensity (ln)": "10.3 ± 0.3"},
      {"sequence": "AAAATTATAATAATATGTACTTAAAAAATTTATATA [XGTACX_site632]", "gcPBM binding intensity (ln)": "11.2 ± 0.91"},
      {"sequence": "TTCTTCAAGGAAAACACATGCGCATTTTCACCAATT [TGCATGCA_site11]", "gcPBM binding intensity (ln)": "10.04 ± 0.049"},
      {"sequence": "ATATATATATATATATGTACATATGTATATTTTTTT [XGTACX_site1299]", "gcPBM binding intensity (ln)": "10.9 ± 0.44"},
      {"sequence": "CATACATACAGATATACACACATATATAATAATATA [CACACA_site5477]", "gcPBM binding intensity (ln)": "9.89 ± 0.12"},
      {"sequence": "CATATTTGCACTTTCACACATAAATATATAACTATA [CACACA_site6016]", "gcPBM binding intensity (ln)": "10.3 ± 0.22"},
      {"sequence": "TATATATATATATACACACACACACCCATATATATA [CACACA_site2538]", "gcPBM binding intensity (ln)": "10.1 ± 0.2"},
      {"sequence": "CTGTATTCATAATTCACACAAATGGTTTATATGAAT [CACACA_site4315]", "gcPBM binding intensity (ln)": "10 ± 0.15"},
      {"sequence": "TTTAAACAAGGATCCACACACCCCAAAAAAAAAAGA [CACACA_site680]", "gcPBM binding intensity (ln)": "10.5 ± 0.47"},
      {"sequence": "TTTTTATTTTTGTAGTGTACTTTATTTTTTTTGTTT [XGTACX_site8887]", "gcPBM binding intensity (ln)": "11.6 ± 0.91"},
      {"sequence": "TAGATTCTTGAATAAGTGCAAAATATAATATTTATT", "gcPBM binding intensity (ln)": "9.93 ± 0.16"},
      {"sequence": "AAAAATAAAATAAAATAAAATAAACATACCATATGT [CACACA_negctrl_site594]", "gcPBM binding intensity (ln)": "9.935 ± 0.021"},
      {"sequence": "CAAAAGTATAATAATACACACACTTTAAAAGTTAAA [CACACA_site3343]", "gcPBM binding intensity (ln)": "10.1 ± 0.13"},
      {"sequence": "TATATATGTTCAATATGTACATATATATAAGTGTAT [XGTACX_site5157]", "gcPBM binding intensity (ln)": "10.9 ± 0.52"},
      {"sequence": "AAGAAATATTTATACACACACACAAACATATATATA [CACACA_site1912]", "gcPBM binding intensity (ln)": "9.98 ± 0.16"},
      {"sequence": "ATATTATTGTAGAAATGTACATATATATATATATAT [XGTACX_site1882]", "gcPBM binding intensity (ln)": "11 ± 0.49"},
      {"sequence": "TTACAAATGGTTTACACACACATAATTGTATCAATT [CACACA_site4167]", "gcPBM binding intensity (ln)": "10.1 ± 0.14"},
      {"sequence": "TAATATATGAGAAATTGTACAGAAAGGAATATGCTT [XGTACX_site5300]", "gcPBM binding intensity (ln)": "10.7 ± 0.35"},
      {"sequence": "TATATATGGTATAATTGTACTAACGCCAACTATACC [XGTACX_site5853]", "gcPBM binding intensity (ln)": "10.9 ± 0.53"},
      {"sequence": "TAGCTTTTGCCTTTTTTTAAAAAAAAATAAATAAAT [TGCATGCA_negctrl_site242]", "gcPBM binding intensity (ln)": "9.81 ± 0.099"},
      {"sequence": "TATATATATTTATACACACAAACATAATACTACTTA [CACACA_site2022]", "gcPBM binding intensity (ln)": "10.3 ± 0.22"},
      {"sequence": "TTTTTTTTTATGTGCACACAAAAGATGCTTATATTT [CACACA_site2348]", "gcPBM binding intensity (ln)": "10.7 ± 0.43"}
    ]}
  ]
}
